From ChEMBL document CHEMBL4888484, “Replenishing the malaria drug discovery pipeline: Screening and hit evaluation of the MMV Hit Generation Library 1 (HGL1) against asexual blood stage Plasmodium falciparum ,using a nano luciferase reporter read-out” (2022)
In all, about 150,000 compounds went through this assay and about 540 (0.36%) showed an effect of 50% or more. This is one part of the list.

system: Plasmodium falciparum; experiment: Primary screen in NF54 nanoGlo assay, in single point, at 2uM, 72h; a lower Z score goes with more inhibition; type: functional, Erythrocyte; details: timepoint 72 hour

SMILES	% Inhibition	Z score
C[C@H]1CCCN1C(=O)Cn1[nH]c2ccccc2c1=O	6%	-1.11
COc1ccc(OC)c(-n2c(C3CCCCC3)n[nH]c2=O)c1	4%	-0.69
CN1CCCc2cc(C(=O)N3CCC(CCC(=O)NC4CC4)CC3)ccc21	0%	-0.01
CC(C)(C)OC(=O)N1CCN(c2nnc(C(C)(C)C)[nH]2)CC1	-9%	1.54
CCC(CC)[C@H](NCc1nc(C2CC2)nn1C)c1cccs1	-7%	1.08
C[C@H]1C(=O)N(C)C[C@@H](CNS(=O)(=O)c2ccccc2)N1Cc1cccnc1	40%	-5.81
CCN(C)C1(CNS(=O)(=O)N2CCCC2)CCCCC1	-9%	1.67
CN(CC(=O)NC1CCCCCCC1)CC1(C)COC1	-1%	0.19
O=C(Nc1nc2c(s1)CN(C(=O)COc1ccccc1F)CC2)c1ccsc1	-2%	0.32
CC(C)NC(=O)NCc1ccc(C(=O)N2CCN(S(=O)(=O)c3ccc4c(c3)CCCC4)CC2)cc1	19%	-2.42
CCc1c(C)sc2c1CCN(C(=O)NCc1cccc(OC)c1)[C@@H]2c1ccc(F)cc1	-14%	1.41
Cc1cc(NC(=O)Nc2ccccc2)c2[nH]c(C(=O)NCCc3ccco3)c(-c3ccccc3)c2c1	-10%	1.9
CN1C[C@@H](C(=O)Nc2ccc(NC(=O)OC(C)(C)C)nc2)CC1=O	-10%	1.6
O=C(Cn1cc(-c2nc(-c3ccc(Cl)cc3)no2)ccc1=O)NCc1ccc(F)cc1	-4%	0.56
O=C(c1cnn2ccccc12)N1CCC(n2ncc3c2CNC3)CC1	-16%	2.42
Cc1nscc1C(=O)N1C[C@@H]2CCCN(C(=O)c3csnc3C)[C@@H]2C1	6%	-1.03
CN(Cc1ccn(C)n1)C(=O)NC[C@H]1CCC(C)(C)c2ccccc21	-6%	1.06
C[C@@H](CO)N(C)Cc1nc2c(s1)CN(C(=O)OC(C)(C)C)CC2	1%	-0.19
COc1cc(C(=O)OC(C)C(=O)Nc2ccc3c(c2)OCCO3)cc2c1OC(C)C2 (centres undefined)	-15%	1.4
Cc1cccc(C2C(C(=O)NC(C)C)c3ccccc3C(=O)N2C2CC2)c1 (centres undefined)	-14%	1.4
Cc1nc(NC(=O)c2oc3ccccc3c2CN(C)C)n[nH]1	-14%	1.82

SMILES	% Inhibition	Z score
O=C(Nc1nccs1)C1CCCN(C(=O)C2CC2c2ccco2)C1 (centres undefined)	-15%	1.32
CS(=O)(=O)N1C[C@H]2CC[C@@H](C1)N(C(=O)c1ccccc1C#N)C2	-7%	0.64
CCn1ncnc1[C@H](C)NC(=O)c1nc(C(C)C)cs1	-6%	0.79
CN(Cc1ccccc1)C(=O)c1cccc(Nc2c(Oc3ccccc3)cnn(-c3ccc(Cl)cc3)c2=O)c1	-10%	1.55
c1ccc(-c2cc(CN3C[C@H]4CC[C@@H](C3)N(CC3CC3)C4)on2)cc1	-8%	1.18
O=C(Nc1ccc2c(c1)N(C(=O)c1ccccc1)CCC2)c1ccccc1Cl	-15%	1.49
COc1cc(=O)[nH]cc1C(=O)N1CCO[C@H]2CCC[C@H]21	-6%	0.69
CCCN(CCC)Cc1ccc(C(=O)N2C3CCC2CC(Oc2cccc(C(F)(F)F)c2)C3)cc1 (centres undefined)	3%	-0.53
C[C@H]1CCCCN1CCNC(=O)N(Cc1cccc(O)c1)CC1CC1	-10%	1.13
c1cnn(-c2cncc(NCC3CCCCCCC3)n2)c1	1%	-0.11
COc1ccc(C(=O)N2CCC3(CC2)OC[C@@H](C(=O)N2CCOCC2)N3C(=O)c2ccc(C)cc2)cc1	7%	-1.34
Cc1ccc(-c2nnc3n2CC(C)(C)CC3)o1	-7%	1.23
Cc1c(C(=O)N(C)Cc2cscn2)n(C)c2c(C)cccc12	-5%	0.53
Cc1n[nH]c(C)c1CCC(=O)N(C)Cc1ccoc1	-11%	1.57
CCC(C)NC(=O)CN1C[C@H](C(=O)OC)[C@@H](c2cncn2C)C1 (some centres undefined)	-10%	2.17
Cc1nc(Nc2ccc(N3CCOCC3)cc2)cc(-c2ccccc2)n1	6%	-1.02
Cc1ccnc2nc(C(=O)OCc3cccc4cccnc34)nn12	11%	-1.53
O=C1NC2(CCCC2)C(=O)N1c1nc(C(F)(F)F)cs1	-10%	1.38
CC(C)CCC(=O)NCC(=O)NCC1CCCOC1C(C)(C)C (centres undefined)	-5%	0.97
c1cnn(Cc2ccc(-c3nc([C@H]4CCOC4)no3)o2)c1	-8%	1.58
Cc1cccc(N2C(=O)c3ccc(C(=O)Nc4cccc(NC(=O)c5c(-c6ccccc6Cl)noc5C)c4)cc3C2=O)c1	13%	-1.64

SMILES	% Inhibition	Z score
C[C@]1(Cc2cccc(F)c2)CCCN1C(=O)c1cnn2c1CCC2	1%	-0.14
O=C(C1CC1c1ccc2c(c1)OCCO2)N1CCCC(n2ccnn2)C1 (centres undefined)	6%	-0.89
Cc1coc(-c2ccc(C)c(S(=O)(=O)N3CCCC[C@H]3C(=O)O)c2)n1	-8%	1.37
Cc1cccnc1N(C)C(=O)c1ccnc(C2CC2)n1	-5%	0.98
COc1ccc(C(=O)NCC(=O)Nc2ccc3c(c2)OCCCO3)cc1	-16%	2.13
CCOC(=O)CN(CC1CC1)C(=O)CCc1ccc(F)cc1	-9%	1.4
CC(C)C1C(c2ccccc2)NC(c2ccccc2)CC1(O)c1ccc(F)cc1 (centres undefined)	5%	-0.6
Cc1ccccc1N1CCN(c2ncccc2CNC(=O)[C@@H]2C[C@@H](O)CN2)CC1	-7%	1.03
COc1ccc([C@H]2C(=O)N(C3CCCCCC3)CC(=O)N2Cc2ccc(F)cc2)cc1	0%	-0.01
C#CC(CC)(CC)NC(=O)COc1ccccc1F	-5%	0.67
O=C(c1ccc(Cl)c(S(=O)(=O)N2CCCCCC2)c1)N(C1CCCC1)C1CC1	-10%	0.91
CC(C)(C)OC(=O)N1CCc2nccc(O)c2C1	-7%	1.31
COc1cc(Cc2ncnn2C2Cc3ccccc3C2)cc(OC)c1OC	-10%	1
Cc1ccc(C(=O)N(C)CCN(C)C(=O)c2ccc(Cl)cn2)c(C(C)C)n1	11%	-1.45
Cc1nnc(C2CCN(CC(=O)Nc3ccc(C)c(Cl)c3)CC2)s1	-5%	0.92
CCCN(CCC)c1cc(Oc2cc(C)ccc2Cl)ncn1	22%	-2.48
Cc1cc2c(cc1C(=O)N1CCC[C@H](Cn3ccnc3)C1)OCCO2	-17%	1.48
Cc1cc(NC(=O)c2cnc3c(C)cccn3c2=O)[nH]n1	1%	-0.12
O=C(O)c1cc(S(=O)(=O)N2CC[C@H](c3ccccc3)C2)cs1	-17%	2.1
O=C1CCN(c2ncc(-c3cc(F)ccc3OCC(F)(F)F)cn2)CCN1	3%	-0.57
O=C(O)CC[C@H]1CCCN(c2nc(C3CC3)nc3[nH]ccc23)C1	-14%	1.75

SMILES	% Inhibition	Z score
Clc1cccc(-c2nc(-c3cccc4ccccc34)c(-c3ccccc3)[nH]2)c1	-4%	0.56
COc1ccc(C)cc1-c1cnc2nncn2c1	-3%	0.55
CC(C)c1nc([C@H]2CCCN(Cc3nccc4c3CCCC4)C2)no1	32%	-3.71
Cc1ccc(C)c(C(=O)N2CCCC[C@H]2C(=O)N2CCOCC2)c1	3%	-0.67
Cc1nn(C)c(C)c1S(=O)(=O)N1CC[C@H](S(=O)(=O)c2ccc(Cl)cc2)C1	1%	-0.21
COc1ccc(-c2ccc(CNC(=O)[C@@H]3CCCN3)s2)cc1	-7%	0.66
O=S(=O)(CCC1CC1)N1CCc2cccc(Br)c2C1	-2%	0.35
CN(Cc1ncc[nH]1)C(=O)C1(N(C)CCc2ccccc2)Cc2ccccc2C1	11%	-1.37
Cc1cnc(C(=O)NC[C@H](O)Cn2ccnn2)c(C)c1	4%	-0.58
CC(C)(C)C1CC(NC(=O)C2CC=CC2)CCO1 (centres undefined)	36%	-4.91
CCOCCCN1C(=O)c2nc3ccccc3n2C[C@@]1(C)C(=O)NC1CCCCCCC1	-6%	0.57
COc1ccc(NC(=O)NC[C@]2(C)CCC[C@]3(C)c4ccc(C(C)C)cc4CCC23)c(OC)c1 (some centres undefined)	6%	-0.52
C#C[C@@H](NC(=O)c1cc(Cl)c2c(c1)OCCCO2)C1CCOCC1	-6%	0.95
c1ccc(CN2CCN(CCCc3c[nH]c4ccccc34)CC2)cc1	-5%	0.82
C[C@@H](c1ccccc1)n1c(NC(=O)c2ccc(Cl)cc2)c(S(=O)(=O)c2ccccc2)c2nc3ccccc3nc21	-15%	1.3
NC(=O)[C@H]1CCCN1C(=O)Cc1cccc(Cl)c1F	-10%	1.19
Brc1ccc(NCCOc2cccnc2)nc1	-8%	1.29
Cc1nn(CCOc2ccccc2)c(=O)n1-c1cccc(Cl)c1	-6%	0.93
O=C(C1COCCO1)N1CCCC1c1ccc(Cl)c(Cl)c1 (centres undefined)	-6%	1.14
